Experimental data as given in a collection of fitness landscapes (doi:10.1038/s41467-024-54723-y).
Over roughly 18,000 sequences, “TetR repression strength (sort-seq, GFP reporter)” has its median near 0.23; the highest 2% begin near 0.68. The list shows a part of the results.

Target: TetR (class B, Tn10) (UniProt P04483)
Experiment: TetR repression strength (sort-seq, GFP reporter) (relative to tetO2 = 1); higher = stronger repression
Settings: E. coli
Outline: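 Repression strength was calculated by subtracting the read-weighted mean bin from the top bin index plus one and dividing by the unaltered operator's value. The plasmid library was low-copy in E. coli SIG10-MAX, with eight randomized operator positions between a constitutive promoter and sfGFP and constitutive TetR. Cultures grew 5 h at 37 °C in LB containing 50 µg/mL chloramphenicol before 10^6 cells were sorted by FACS into 13 fluorescence bins, each sequenced on Illumina. Three independent transformations were averaged for members having ≥30 reads in all replicates and a CV ≤0.5.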

Sequence of UniProt P04483 (P04483 whole entry): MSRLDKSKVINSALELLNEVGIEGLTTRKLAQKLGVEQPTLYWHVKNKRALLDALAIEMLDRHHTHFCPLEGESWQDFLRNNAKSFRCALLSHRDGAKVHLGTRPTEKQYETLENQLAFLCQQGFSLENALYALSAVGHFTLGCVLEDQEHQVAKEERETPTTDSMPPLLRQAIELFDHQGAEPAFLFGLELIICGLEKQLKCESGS

Sequence	TetR repression strength
TCCCGGTAAGTAGAAGAGA	0.32
TCCCTGGTAGTGGGAGAGA	0.212
TCCCGGAGAGTTAGGGAGA	0.15
TCCCGCTTAGTACGTGAGA	0.194
TCCCGCGTAGTGGCGGAGA	0.306
TCCCTGAGAGTTAAGGAGA	0.105
TCCCGTTAAGTGTTGGAGA	0.188
TCCCGGCAAGTATGGGAGA	0.351
TCCCTTAAAGTAGGGGAGA	0.0786
TCCCGGATAGTAAGCGAGA	0.164
TCCCGGCCAGTGACGGAGA	0.647
TCCCAGTGAGTAGAGGAGA	0.517
TCCCAGGGAGTCGGCGAGA	0.301
TCCCTCCTAGTATGGGAGA	0.42
TCCCCTGAAGTGAGAGAGA	0.352
TCCCGCGAAGTGTTTGAGA	0.197
TCCCCGGAAGTATGAGAGA	0.37
TCCCTAATAGTGGGTGAGA	0.159
TCCCAGGGAGTTCGTGAGA	0.16
TCCCACTCAGTGACCGAGA	0.488
TCCCCACGAGTTAGGGAGA	0.27
TCCCTCCGAGTCCTGGAGA	0.193
TCCCAGGGAGTCTGCGAGA	0.0813
TCCCAGGTAGTGGTCGAGA	0.202
TCCCGATGAGTCTGGGAGA	0.247
TCCCAGGCAGTGAGAGAGA	0.147

Sequence	TetR repression strength
TCCCGTGAAGTAGTGGAGA	0.0271
TCCCCGGCAGTCGCAGAGA	0.207
TCCCCTCCAGTGTCCGAGA	0.516
TCCCTAGTAGTCATTGAGA	0.331
TCCCGAATAGTTGGTGAGA	0.275
TCCCGGGTAGTTCGAGAGA	0.289
TCCCGGACAGTACCGGAGA	0.144
TCCCAAGCAGTGTACGAGA	0.182
TCCCTGTCAGTATGGGAGA	0.112
TCCCGAAGAGTCTGGGAGA	0.308
TCCCTAGTAGTGAGCGAGA	0.159
TCCCCCACAGTGTGGGAGA	0.156
TCCCTGCGAGTGGACGAGA	0.279
TCCCCTGTAGTTGTGGAGA	0.0499
TCCCGGGGAGTTATCGAGA	0.161
TCCCGCATAGTAGCGGAGA	0.394
TCCCGTTGAGTGACGGAGA	0.219
TCCCAGTTAGTGCGGGAGA	0.036
TCCCCTCCAGTGAGTGAGA	0.294
TCCCAGAAAGTGAATGAGA	0.211
TCCCTGGGAGTTGGGGAGA	0.211
TCCCCTGTAGTTGTTGAGA	0.346
TCCCTAATAGTGGGAGAGA	0.295
TCCCTGGCAGTTGGTGAGA	0.308
TCCCCCATAGTGTCCGAGA	0.29
TCCCATATAGTGTACGAGA	0.0769

Sequence	TetR repression strength
TCCCTCTAAGTACATGAGA	0.209
TCCCTGACAGTCCCGGAGA	0.354
TCCCTAGCAGTGCGGGAGA	0.174
TCCCCTTTAGTTTCCGAGA	0.378
TCCCCGTGAGTCGGGGAGA	0.459
TCCCATCTAGTGGGGGAGA	0.318
TCCCACGTAGTCCAGGAGA	0.23
TCCCCGTAAGTGAATGAGA	0.0898
TCCCGTTTAGTGTGAGAGA	0.322
TCCCGGTTAGTCTGTGAGA	0.373
TCCCACCAAGTATTGGAGA	0.207
TCCCGGGCAGTATTGGAGA	0.11
TCCCACGTAGTGCCGGAGA	0.213
TCCCTAAAAGTTGAGGAGA	0.206
TCCCAGAGAGTCGCTGAGA	0.195
TCCCAAGGAGTAGGGGAGA	0.0346
TCCCTAGCAGTCTTTGAGA	0.384
TCCCCACAAGTGGACGAGA	0.155
TCCCGAAAAGTGGGGGAGA	0.146
TCCCAGGTAGTTACGGAGA	0.276
TCCCGTGAAGTCGGTGAGA	0.138
TCCCCGAGAGTATAAGAGA	0.292
TCCCGAATAGTGATTGAGA	0.411
TCCCCTGGAGTAATCGAGA	0.354
TCCCCGGCAGTAAAGGAGA	0.232
TCCCAAAAAGTGGAAGAGA	0.199

Sequence	TetR repression strength
TCCCGCTGAGTTCATGAGA	0.0774
TCCCGTCGAGTTTGAGAGA	0.274
TCCCGCCAAGTTAGGGAGA	0.249
TCCCCGTAAGTACAGGAGA	0.368
TCCCAGGAAGTGTGTGAGA	0.0581
TCCCCGCTAGTTGGAGAGA	0.246
TCCCATACAGTCGAAGAGA	0.241
TCCCGCAAAGTGAGTGAGA	0.26
TCCCTTCAAGTGTAAGAGA	0.158
TCCCCCGCAGTACCGGAGA	0.146
TCCCTCAAAGTTGGGGAGA	0.133
TCCCTGTCAGTCGCAGAGA	0.188
TCCCTGATAGTCCTTGAGA	0.249
TCCCGGCTAGTGAGGGAGA	0.124
TCCCCGCAAGTGATCGAGA	0.139
TCCCCGTTAGTGATCGAGA	0.188
TCCCTGTGAGTGTTGGAGA	0.228
TCCCCTATAGTTTAAGAGA	0.335
TCCCCTTGAGTGGGGGAGA	0.258
TCCCTCACAGTCGGCGAGA	0.166
TCCCAAATAGTAAGTGAGA	0.203
TCCCAAGGAGTGGCGGAGA	0.108
TCCCCGGCAGTGAAGGAGA	0.0806
TCCCACTCAGTTCTTGAGA	0.356
